Reference: PubChem BioAssay (NCATS)
Inconclusive results are not listed. The call rests on the fitted dose curve; in most records, active means well fitted curve in the direction sought with a large enough effect; inconclusive means small, poorly fitted or top-dose-only effect, or another doubt; inactive means no such curve, though single readings can be large; an effect the other way counts as inactive or inconclusive. Some structures have more than one record in an assay (separate samples or runs), and their calls can disagree. Some entries of the source have several records that differ or are many. Only these are listed. There may be further records. Values that stand side by side repeat one measurement in other runs, samples, wells, individuals or studies. Marks in square brackets tell the records apart. Letters hold for one entry only.

What was measured:
[1] = qHTS of pediatric cancer cell lines to identify multiple opportunities for drug repurposing: Primary screen for SK-N-MC cells (AID 1347093); conditions: SK-N-MC viability, CellTiter-Glo luminescence, 48 h; series mostly up to 46 µM
[2] = tested on: Zika virus NS2B-NS3 protease; experiment: Primary screen GU AMC qHTS for Zika virus inhibitors (AID 1347154); conditions: Zika NS2B-NS3 unlinked protease, AMC fluorogenic substrate; series mostly up to 54.1 µM; further: nearly all actives have a fitted effect of over 70% in size
How it was run: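 Unlinked Zika NS2B hydrophilic domain–NS3 protease complex at 25 nM in 10 mM Tris-HCl pH 8.0, 0.01% Tween 20, with an AMC peptide substrate. Fluorescence change (340/450 nm) over 15 min at room temperature, normalized to controls, fitted to 4-parameter Hill.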

[3] = Confirmatory screen NINDS Rhodamine qHTS for Zika virus inhibitors (AID 1347161); conditions: purified enzyme assay, Rhodamine110 substrate fluorescence, 15 min; series mostly up to 114 µM; further: nearly all actives have a fitted effect of over 60% in size
How it was run: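 Purified NS2B-NS3 protease with the NS2B hydrophilic domain joined by a flexible linker (25 nM) in 10 mM Tris-HCl pH 8.0, 0.01% Tween 20, preincubated 15 min at RT with compound; Rhodamine110 peptide substrate 1.5 µM; fluorescence change over 15 min; 4-parameter Hill fit.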

[4] = Tertiary RLuc qRT-PCR qHTS assay for Zika virus inhibitors (AID 1347169); conditions: infected Vero cells, reporter luminescence, 48-72 h; series mostly up to 45.9 µM; further: nearly all actives have a fitted effect of over 55% in size
How it was run: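 Orthogonal cell-based readout: luminescence measured 1-1.5 hrs after adding live-cell Renilla substrate to Vero cells that had been infected with ZIKV-RLuc (MOI 1-2) post-compound, incubated 48-72 hrs at 37 degrees C.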

[5] = Counterscreen qHTS for small molecule stabilizers of the endoplasmic reticulum resident proteome: GLuc-NoTag assay (AID 1508627); conditions: Gaussia luciferase NoTag secretion counterscreen, luminescence, thapsigargin 100 nM for final 4 h; series mostly up to 76.4 µM
How it was run: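 SH-SY5Y cells stably expressing constitutively secreted GLuc without SERCaMP tag, exposed to compound for 19 hr, then to 100 nM thapsigargin for 4 hr at 37C. Medium luciferase was read by coelenterazine luminescence without lysis.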

[6] = target: Rap guanine nucleotide exchange factor 3 (Homo sapiens) (UniProt O95398); experiment: Confirmatory qHTS for agonist of cAMP-regulated guanine nucleotide exchange factor 3 (EPAC1) (AID 1645881); conditions: EPAC1 Rap1B BODIPY-GDP exchange fluorescence; series mostly up to 154 µM; further: nearly all actives have a fitted effect of over 75% in size
[7] = target: Rap guanine nucleotide exchange factor 4 (Homo sapiens) (UniProt Q8WZA2); experiment: Confirmatory qHTS for agonist of cAMP-regulated guanine nucleotide exchange factor 4 (EPAC2) (AID 1645884); conditions: EPAC2 GEF activity, Rap1B-BODIPY-GDP fluorescence; series mostly up to 154 µM;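 further: nucleotide exchange releases bodipy-GDP from Rap1 and this lowers its fluorescence; nearly all actives have a fitted effect of over 65% in size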
Potency means the concentration at half of the fitted maximal effect.

Sequence of UniProt Q8WZA2 (Q8WZA2 whole entry, looked up): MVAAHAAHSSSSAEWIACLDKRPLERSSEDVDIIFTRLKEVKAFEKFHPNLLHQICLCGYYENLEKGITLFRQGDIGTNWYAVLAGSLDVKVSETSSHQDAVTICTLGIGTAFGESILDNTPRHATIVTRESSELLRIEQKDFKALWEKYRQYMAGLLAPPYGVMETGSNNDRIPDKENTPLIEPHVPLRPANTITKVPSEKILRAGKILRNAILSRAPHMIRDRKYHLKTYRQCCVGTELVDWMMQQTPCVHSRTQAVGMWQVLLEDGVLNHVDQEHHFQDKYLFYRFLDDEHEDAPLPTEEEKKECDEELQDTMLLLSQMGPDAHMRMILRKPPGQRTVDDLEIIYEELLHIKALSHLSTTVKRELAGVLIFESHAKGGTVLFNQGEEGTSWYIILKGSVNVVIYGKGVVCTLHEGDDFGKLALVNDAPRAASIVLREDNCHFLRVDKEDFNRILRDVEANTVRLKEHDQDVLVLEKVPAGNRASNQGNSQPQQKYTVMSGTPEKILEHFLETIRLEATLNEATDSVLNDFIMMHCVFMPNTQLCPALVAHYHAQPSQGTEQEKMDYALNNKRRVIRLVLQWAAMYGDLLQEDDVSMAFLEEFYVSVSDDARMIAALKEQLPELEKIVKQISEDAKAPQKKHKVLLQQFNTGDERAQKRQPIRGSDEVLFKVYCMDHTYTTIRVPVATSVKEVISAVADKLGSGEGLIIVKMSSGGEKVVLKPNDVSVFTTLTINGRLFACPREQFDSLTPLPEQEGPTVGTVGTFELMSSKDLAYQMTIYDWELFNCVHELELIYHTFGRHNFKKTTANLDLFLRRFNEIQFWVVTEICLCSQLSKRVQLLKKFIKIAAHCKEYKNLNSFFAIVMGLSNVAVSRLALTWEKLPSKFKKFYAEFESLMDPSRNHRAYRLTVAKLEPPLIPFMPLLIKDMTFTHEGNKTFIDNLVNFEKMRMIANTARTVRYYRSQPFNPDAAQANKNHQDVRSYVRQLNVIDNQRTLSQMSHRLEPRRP
Sequence of UniProt O95398 (O95398 whole entry, looked up): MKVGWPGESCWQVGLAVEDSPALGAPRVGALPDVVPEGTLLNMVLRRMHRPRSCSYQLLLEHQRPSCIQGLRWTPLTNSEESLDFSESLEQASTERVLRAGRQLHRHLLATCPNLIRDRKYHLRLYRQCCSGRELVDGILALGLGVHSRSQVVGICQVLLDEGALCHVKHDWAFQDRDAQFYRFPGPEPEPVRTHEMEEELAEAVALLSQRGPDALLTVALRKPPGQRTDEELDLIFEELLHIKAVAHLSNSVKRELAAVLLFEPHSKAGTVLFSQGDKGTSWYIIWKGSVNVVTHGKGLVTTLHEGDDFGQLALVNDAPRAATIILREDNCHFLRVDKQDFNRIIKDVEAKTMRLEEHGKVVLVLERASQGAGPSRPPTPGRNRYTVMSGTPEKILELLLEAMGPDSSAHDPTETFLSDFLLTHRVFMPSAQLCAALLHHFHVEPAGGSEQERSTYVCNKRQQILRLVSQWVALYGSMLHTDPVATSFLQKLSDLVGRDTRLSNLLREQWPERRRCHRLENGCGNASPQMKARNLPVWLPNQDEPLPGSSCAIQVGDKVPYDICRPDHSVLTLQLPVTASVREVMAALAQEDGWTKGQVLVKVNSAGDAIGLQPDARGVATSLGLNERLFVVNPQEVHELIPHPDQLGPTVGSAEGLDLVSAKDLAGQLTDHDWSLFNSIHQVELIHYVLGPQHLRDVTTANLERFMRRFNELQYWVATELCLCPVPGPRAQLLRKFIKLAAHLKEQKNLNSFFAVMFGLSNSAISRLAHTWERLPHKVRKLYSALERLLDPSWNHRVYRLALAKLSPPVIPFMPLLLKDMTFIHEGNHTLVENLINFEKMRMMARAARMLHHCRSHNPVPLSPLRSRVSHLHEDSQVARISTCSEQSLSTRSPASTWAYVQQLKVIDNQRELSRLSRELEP

## COc1ccnc(CS(=O)c2nc3ccc(OC(F)F)cc3[nH]2)c1OC (configuration not stated)
[1]
  Potency: inactive [sample A] and active: 23.5 µM [sample B]

## O=C(O)Cc1cccc(OCCCN(Cc2cccc(C(F)(F)F)c2Cl)CC(c2ccccc2)c2ccccc2)c1
[2]
  Potency: inactive [sample A] and active: 7.64 µM [sample B]

## N#CC1(c2cccc(C(=O)Nc3cc(Oc4ccc5nc(NC(=O)C6CC6)sc5n4)ccc3F)c2Cl)CC1
[3]
  Potency: inactive [sample A] and active: 15.6 µM [sample B]
[4]
  Potency: inactive [sample A] and active: 658 nM [sample B]

## CN(C(Cc1ccc(OS(=O)(=O)c2cccc3cnccc23)cc1)C(=O)N1CCN(c2ccccc2)CC1)S(=O)(=O)c1cccc2cnccc12 (configuration not stated)
[5]
  Potency: inactive [sample A] and active: 7.94 µM [sample B]

## Cc1cc2nc3c(=O)[nH]c(=O)nc-3n(CC(O)C(O)C(O)CO)c2cc1C (configuration not stated)
[6]
  Potency: inactive [sample A] and active: 79.3 µM [sample B]
[7]
  Potency: inactive [sample A] and active: 88.9 µM [sample B]
